± gives the standard deviation of the averaged measurements. Some of the results follow.

The experiment has as its system PfAP2-I AP2 domain 3 (GST-tagged). Description: gcPBM binding intensity (ln(normalized median fluorescence intensity)); higher = stronger DNA binding. A digest of the protocol:
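An Agilent 4 × 180k array of primer-extended double-stranded 36-bp intergenic genomic probes, with negative controls, was incubated for 1 h with GST-tagged P. falciparum DNA-binding domains expressed in E. coli. Alexa488 anti-GST antibody detected bound protein, scanned at 488 nm. Binding intensity is the highest Masliner-normalised natural-log median intensity across replicate spots of either probe orientation.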
On to “AAAAAAAAATTAAAAACACACATATATATATATATA [CACACA_site1580]”, for which the “gcPBM binding intensity (ln)” value worked out at 9.41 ± 0.11. Consider “TAAGTATATTTCTGCACACAAAAAAAAAAACCAAAA [CACACA_site4056]”, for which the “gcPBM binding intensity (ln)” value worked out at 8.815 ± 0.035. “AAAATTTAATATGAATGTACATAAAAAAAAAAAAAA [XGTACX_site6719]”: the “gcPBM binding intensity (ln)” value was 8.13 ± 0.45.

As to TATATATATATATATGTGCACATTTATTGCCTTTGC, the “gcPBM binding intensity (ln)” value turned out to be 9.76. For the sequence “TATAAATAAAGACTTTTTTCTAACTTTTTTTTGTAT [CACACA_negctrl_site1015]”, the “gcPBM binding intensity (ln)” value is 7.41 ± 0.64. As for “ATACACAAATGCATACGTACATATATATATATATAT [XGTACX_site3504]”, the “gcPBM binding intensity (ln)” value amounted to 9.34 ± 0.57.

For the sequence “AAAAAAAAAAAAACAACACACAATGTTTTATTTTAC [CACACA_site1613]”, the “gcPBM binding intensity (ln)” value turned out to be 7.99 ± 0.57. Then “TAAAACAAAATAACATGTACAAAAAAAAAAAAAAAA [XGTACX_site2915]”, with 8.02 ± 0.62; and “ATGTAATATGTTCATGCATGTAAAATTACATTTAGA [TGCATGCA_site852]”, with 7.74 ± 0.62; and “CATATAAGAATCTTCTGTACTTATAAGAAAAGACAT [XGTACX_site8135]”, with 7.89 ± 0.48. In the case of “GGACGTATTAAAAGGCGTACACTAAATATTTTATGT [XGTACX_site146]”, the “gcPBM binding intensity (ln)” value turned out to be 8.06 ± 0.34. As for “TAATATTTATATAATTGTACTTTGTTTGTAAATCCA [XGTACX_site7292]”, the “gcPBM binding intensity (ln)” value came out at 7.58 ± 0.43. Then “AAGATAATTACGCACACACACACACGCCCACAACTA [CACACA_site7255]”, with 9.515 ± 0.064. As to “ATTATAATTTTGTAAAGTACATATTATTATATATTA [XGTACX_site7191]”, the “gcPBM binding intensity (ln)” value turned out to be 7.42 ± 0.3. Turning to “AAGGTAAAATATAAGTGTACTTTTTCTTAATCTTCG [XGTACX_site514]”, the “gcPBM binding intensity (ln)” value is 7.69 ± 0.24. Then “ATATATAATATAATATGTACATATAATCAATCCTGT [XGTACX_site8694]”, with 7.94 ± 0.3; and “ATTTAGTATTCGAAACGTACACATATATATATATAT [XGTACX_site3910]”, with 9.3 ± 0.32; and “ATATTTTTTTTCTTCACACACATGAGTTATAAATAA [CACACA_site7498]”, with 8.23 ± 0.69. Then “AATGAAACAATACCCAGTAAAAAAAAAAAATAAATA [TGCATGCA_negctrl_site205]”, with 7.47 ± 0.71; and “TGTAATCTGGAGAAGAGTACACAGTATCTGGTAGCT [XGTACX_site4935]”, with 7.62 ± 0.64; and “GCAAAATAAAGAAGCACACAAAAATGAAATATATAT [CACACA_site3651]”, with 7.95 ± 0.8.

Turning to “CATATTTATAAATATAAACACACAACATTATATGCA [CACACA_site9065]”, the “gcPBM binding intensity (ln)” value amounted to 7.71 ± 0.42. Then “TTTAATTAATAATAATATAAATTGTTCTTTTTTTTT [GTGCAC_negctrl_site176]”, with 6.96 ± 0.46; and “ACTAGTAAATTTATATGTACATATATATATATATAG [XGTACX_site2502]”, with 8.02 ± 0.54.

Turning to “AAAAAAAATACATACATACACACATATATATATATA [CACACA_site912]”, the “gcPBM binding intensity (ln)” value stood at 9.33 ± 0.31. As for “TCTTGGTATATTCAATATATGATTTATATAATTCAA [CACACA_negctrl_site818]”, the figure is 7.67 ± 0.49. As for “ATTTATATATATCATACACACTAATATGTATATTAT [CACACA_site5816]”, the figure is 7.8 ± 0.37; as for “TATACGTAATAATATGCACACAAATAAACTTTATAA [CACACA_site9166]”, 8.87 ± 0.085. As for “TTATTTTTTTCAACAAGTACTAATACAAAATAAAAC [XGTACX_site6460]”, the figure is 8.06 ± 0.44. As for “GATTAAATCGATAATACACACTAAATGTAAAACATT [CACACA_site4248]”, the “gcPBM binding intensity (ln)” value is 7.87 ± 0.36. As for “TTGTATTATTAAATTATAAAACCTATAATTATGGAT [GTGCAC_negctrl_site340]”, the figure is 7.55 ± 0.27. “TGATAACTAAATACATGTACAAATTAAAAAGAAAAA [XGTACX_site3080]”: the “gcPBM binding intensity (ln)” value stood at 7.66 ± 0.72. For the sequence “TAATGATTATATGACTGTACATTTGTAGGTATAATT [XGTACX_site3373]”, the “gcPBM binding intensity (ln)” value stood at 7.9 ± 0.42. Take “GTACATATAAATATTACACACATTTTCATTTTTAAC [CACACA_site1986]”: the “gcPBM binding intensity (ln)” value amounted to 8.12 ± 0.25. With “AAATCGAACAAATTATGTACTAAAAAAAAAATTTAT [XGTACX_site6399]”, the “gcPBM binding intensity (ln)” value was 7.68 ± 0.54.

On to “TTATATGCATCCAAAAAGGAATGTTTTTAGAGAATC [CACACA_negctrl_site1062]”, for which the “gcPBM binding intensity (ln)” value is 7.63 ± 0.67. For the sequence “ATCTTTCGAACATGTACACACAGAAAAAAAAAAAAA [CACACA_site5393]”, the “gcPBM binding intensity (ln)” value was found to be 8.29 ± 0.48. Then “TGTATAGGTACAATAATTATAGAGTAATTGACATTA [GTGCAC_negctrl_site183]”, with 7.8 ± 0.49; and “TAAAAAGTATATGGTCGTACACTTTTGATTAATACA [XGTACX_site7804]”, with 7.58 ± 0.45.

For “GTGTAGGCAAAAAGTTGTACGCCTAAAATCTATATA [XGTACX_site8912]”, the “gcPBM binding intensity (ln)” value is 8.18 ± 0.19. Then “ACTCTCTTATATTAAACACACATATATATATGTATA [CACACA_site2703]”, with 8.26 ± 0.56; and “TCAAACAAAAAAGAAACACACACTAATTAAATTTTC [CACACA_site1101]”, with 7.54 ± 0.88. Then “AATAATTTGAAGGTGATAGTATTACATGGGAAATCA [CACACA_negctrl_site301]”, with 7.87 ± 0.64. As to “AACACCAAACAAAGGTGTACATATAGGAAAAAATCT [XGTACX_site1006]”, the “gcPBM binding intensity (ln)” value was 7.81 ± 0.69.
